Variants at the floor of the assay are shown more often than the library holds them.
B1: TPR 5TU (parent)
chain: GGAUCUUCUCGAUCUAACAAAAAAGACAAAUCUGCCACAAAGCUUGAGAGCAUCUUCGGAUGCAGAGGCGGCAGCCUUCGGUGGCGCGAUAGCGCCAACGUUCUCAACUAUGACACGCAAAACGCGUGCUCCGUUGAAUGGAGUUUAUCAUG

Variants of: B1
Test: polymerase ribozyme fitness, log enrichment relative to wild type (log ratio); higher = more active; in vitro selection for triplet polymerase activity
In short: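 One round of in vitro selection, in triplicate, was applied to PCR-built, transcribed mutant libraries of each subunit of a heterodimeric triplet polymerase ribozyme. The steps were annealing with a biotinylated primer, partner subunit and triplets, incubation frozen at −7 °C, gel excision of extended constructs, streptavidin-bead capture and RT-PCR. Fitness is the logarithm, base 2, of genotype enrichment over wild-type enrichment from inverse-variance-weighted replicate averages of Illumina-sequenced inputs and outputs, keeping genotypes with ≥10 input reads and ≥1 read per output.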

| Variant | polymerase ribozyme fitness (log ratio) |
| --- | --- |
| U55G G67A C93A A122G | ≤ -4.2 |
| U55G G67C U78G G83U C93A U102A A121C | ≤ -4.2 |
| U55G G68U C96A A98U | ≤ -4.2 |
| U55G G70A C76A U82A G92C | ≤ -4.2 |
| U55G G74U C76A G94C G136C G152U | ≤ -4.2 |
| U55G G74U C79U A120G A137U | ≤ -4.2 |
| U55G G80U C108G G124A | ≤ -4.2 |
| U55G G83A A115C C123U G136U | -2.92 |
| U55G G88U A91U C116A | ≤ -4.2 |
| U55G G88U G117C | ≤ -4.2 |
| U55G G94A | -1.43 |
| U55G U61A C79A C131G G133U A138G | ≤ -4.2 |
| U55G U61A G143C | ≤ -4.2 |
| U55G U61G C69A C96U C131A | ≤ -4.2 |
| U55G U61G G83A A91G G100A A120U | ≤ -4.2 |
| U55G U61G G88U | ≤ -4.2 |
| U55G U77A C87U G92C A98G C131U A138C | ≤ -4.2 |
| U55G U82A A91C C95A | ≤ -4.2 |
| U55G U82C C93A A98U C105U G126C A142C | ≤ -4.2 |
| U56A A60C G88C C95U U139G G140A | ≤ -4.2 |
| U56A A60U C75A C79G C95U C125G U148G | ≤ -4.2 |
| U56A A60U U61A U77C G84U C96G U101G G136U A142G | ≤ -4.2 |
| U56A A64G C79A G88A G92A U145G A147G | ≤ -4.2 |
| U56A A64G C79G | ≤ -4.2 |

| Variant | polymerase ribozyme fitness (log ratio) |
| --- | --- |
| U56A A64U A89C A150G | ≤ -4.2 |
| U56A A64U G86A C95U A113G C131G U139C A142C | ≤ -4.2 |
| U56A A73C G84U U127C | ≤ -4.2 |
| U56A A73U C87A A142C | ≤ -4.2 |
| U56A A91U A113U U135C | ≤ -4.2 |
| U56A A107U | -2.87 |
| U56A A107U A138G | ≤ -4.2 |
| U56A A113U | -1.87 |
| U56A A142C A147G | ≤ -4.2 |
| U56A C57U C76G A91G G143U U145G | ≤ -4.2 |
| U56A C57U C87U G88A C108A U146C A150U | ≤ -4.2 |
| U56A C57U C96U | -0.285 |
| U56A C63U A64U G84A G128A | ≤ -4.2 |
| U56A C69A | -1.46 |
| U56A C69U G71C C79U A89U A91G C132U | ≤ -4.2 |
| U56A C72G U82G C85U G86A A89G C96G U101A A119G A120C | ≤ -4.2 |
| U56A C75A G86C A98U | ≤ -4.2 |
| U56A C75A G141A | ≤ -4.2 |
| U56A C75A U102A U104G | ≤ -4.2 |
| U56A C75U C95A C96G U104G G133U | ≤ -4.2 |
| U56A C76G C93U | ≤ -4.2 |
| U56A C76G U78C C96U A106G C123U A142C | ≤ -4.2 |
| U56A C79A G141A | ≤ -4.2 |
| U56A C79A U90C C96U A142U | ≤ -4.2 |

| Variant | polymerase ribozyme fitness (log ratio) |
| --- | --- |
| U56A C79U A91C C96A | ≤ -4.2 |
| U56A C79U G92U C99G | ≤ -4.2 |
| U56A C85A C93A C96G C103A G124U | ≤ -4.2 |
| U56A C87A G112A G126U U134G | ≤ -4.2 |
| U56A C87G | ≤ -4.2 |
| U56A C96A A138G | ≤ -4.2 |
| U56A C96G | -0.228 |
| U56A C96U A107C G117C U134G A137G G143U | ≤ -4.2 |
| U56A C96U A119U | -0.585 |
| U56A C96U G126A | -0.336 |
| U56A C96U U101C U139G | -0.437 |
| U56A C99G G140U | -3.99 |
| U56A C103A A137U | ≤ -4.2 |
| U56A C103G G140U | ≤ -4.2 |
| U56A C105U C116G | -0.192 |
| U56A C108U U148G | ≤ -4.2 |
| U56A C123U | 0.128 |
| U56A G58A C103A C125A | -0.231 |
| U56A G58C U61A G86U C87A G100U | ≤ -4.2 |
| U56A G58U C87U A91G A150G | ≤ -4.2 |
| U56A G59C C85U G86A G92A | ≤ -4.2 |
| U56A G59U A89G C99A A137U U145A | ≤ -4.2 |
| U56A G62C C79U A91C C116A A122C A142C G143A U151A | ≤ -4.2 |
| U56A G65A C75A C85U U148G | ≤ -4.2 |

| Variant | polymerase ribozyme fitness (log ratio) |
| --- | --- |
| U56A G65A G88C | ≤ -4.2 |
| U56A G65C C79U A110C A115G C118A | ≤ -4.2 |
| U56A G68A A73G A107U C108U G136U A137U | ≤ -4.2 |
| U56A G68C U77A C96G U104G C108U G141C | ≤ -4.2 |
| U56A G68U A89G G94C A107U G143A | ≤ -4.2 |
| U56A G74A A110G | ≤ -4.2 |
| U56A G74A A138G | ≤ -4.2 |
| U56A G74A C85G A107U G126U | ≤ -4.2 |
| U56A G74C C105G | ≤ -4.2 |
| U56A G74U | ≤ -4.2 |
| U56A G74U C85G G133U | ≤ -4.2 |
| U56A G80C G88C G141A | ≤ -4.2 |
| U56A G81A | -0.577 |
| U56A G81A C87G U101C C105G | ≤ -4.2 |
| U56A G81A G83A A91C A121C G143U | ≤ -4.2 |
| U56A G81A G126U U135C A138C G141C | ≤ -4.2 |
| U56A G81U C93U G141C | -1.52 |
| U56A G83C A122G G152U | -3.94 |
| U56A G83U | -0.976 |
| U56A G84A A110U A119C A150C G152A | ≤ -4.2 |
| U56A G86C U101A A142U | ≤ -4.2 |
| U56A G88A | -3.78 |
| U56A G88U A107U G141C | ≤ -4.2 |
| U56A G88U G128U A142C | ≤ -4.2 |

| Variant | polymerase ribozyme fitness (log ratio) |
| --- | --- |
| U56A G92A C93U C103A U139A | ≤ -4.2 |
| U56A G117U A138C | ≤ -4.2 |
| U56A G124C | -1.68 |
| U56A G126U | 0.137 |
| U56A U61A | -1.51 |
| U56A U61A G140A | ≤ -4.2 |
| U56A U61A U77G G84U A137G | ≤ -4.2 |
| U56A U61G C85A A137U | ≤ -4.2 |
| U56A U77C G84A U144A | ≤ -4.2 |
| U56A U78A A121C | ≤ -4.2 |
| U56A U78A C79A | ≤ -4.2 |
| U56A U82C C85G G128U G141C | ≤ -4.2 |
| U56A U82G C87G A91C | ≤ -4.2 |
| U56A U101G | 0.0793 |
| U56A U101G C103G | ≤ -4.2 |
| U56A U130A | -2.03 |
| U56A U145G | -0.287 |
| U56C A66U U82A C87U C93U | ≤ -4.2 |
| U56C C57U C103G A107C U127A G140U | ≤ -4.2 |
| U56C C75U A91U | ≤ -4.2 |
| U56C C79A G88C C125U | ≤ -4.2 |
| U56C C79U | -1.8 |
| U56C C85G C149A | ≤ -4.2 |
| U56C C93U U101G C103U G136C | -4.09 |

| Variant | polymerase ribozyme fitness (log ratio) |
| --- | --- |
| U56C C93U U151G | ≤ -4.2 |
| U56C G58A A60U C99G A115C A122G | ≤ -4.2 |
| U56C G68C G92C C132A | ≤ -4.2 |
| U56C G74C C85A G100C | ≤ -4.2 |
| U56C G74U C76U G84U C125G A138C | ≤ -4.2 |
| U56C G133U | -4.01 |
| U56C U78A C85U A89G G126U U144C | ≤ -4.2 |
| U56C U90A C95U | ≤ -4.2 |
| U56C U102A G136C A150G | ≤ -4.2 |
| U56C U102G A142G | -3.95 |
| U56G A60C G81A G94U A106G | -3.84 |
| U56G A60G A73G U90G A147C | ≤ -4.2 |
| U56G A64C G65A G80C G83U A110C G136U G143U | ≤ -4.2 |
| U56G C69A C85G C103G | ≤ -4.2 |
| U56G C72U | -0.106 |
| U56G C75G C93U | -4.19 |
| U56G C85G A115U | -3.43 |
| U56G C85U | -1.42 |
| U56G G58A C63G U101G A120U | -2.56 |
| U56G G58C U61A | -2.98 |
| U56G G59A G81U A89C G92U U139A | ≤ -4.2 |
| U56G G59C G68U U90G U134A | ≤ -4.2 |
| U56G G65A C76A G83A U127A | ≤ -4.2 |
| U56G G65C G67C C85A C93G C118U C149A | ≤ -4.2 |

| Variant | polymerase ribozyme fitness (log ratio) |
| --- | --- |
| U56G G68A A115G C118A G124C G143U | ≤ -4.2 |
| U56G G71C C123G | -3.58 |
| U56G G81A U104C U145C | -1.47 |
| U56G G83A C87G C116G G140C | ≤ -4.2 |
| U56G G84A A91G A115G | -4.1 |
| U56G G88A A119C | ≤ -4.2 |
| U56G G88C | ≤ -4.2 |
| U56G G92U | -2.1 |
| U56G G136A | 0.0437 |
| U56G G141U | 0.498 |
| U56G U77C U102C U127A | ≤ -4.2 |
| U56G U82G G88A A106G A110U | ≤ -4.2 |
| U56G U102C | -1.91 |
| U56G U148G | -3.89 |
| U56G U151C | ≤ -4.2 |
| C57A A60G C75G A91U G136A A137G U144G | ≤ -4.2 |
| C57A A66U C87U C105G U148G | ≤ -4.2 |
| C57A A98G C123G U145G | 0.398 |
| C57A A110U G141A | ≤ -4.2 |
| C57A A121U | -0.0826 |
| C57A C69A U127A | ≤ -4.2 |
| C57A C69U A91U C99A | ≤ -4.2 |
| C57A C69U G74C G81C G86C C87U | ≤ -4.2 |
